Source: PubChem BioAssay AID624417 (National Center for Advancing Translational Sciences (NCATS), 2012)
The whole screen tested about 410,000 compounds, of which about 6,400 (1.6%) were called active. The inconclusive results got no clear call from the source; some entries with a clear call stand among them for comparison. The call rests on the fitted dose curve; in most records, active means well fitted inhibition curve with a large enough effect; inconclusive means small, poorly fitted or top-dose-only effect; inactive means no such curve, though single readings can be large or run the other way. Potencies of inconclusive entries are doubtful fits and often do not repeat.

Target: Glucagon-like peptide 1 receptor (Homo sapiens) (UniProt P43220)
Assay: qHTS of GLP-1 Receptor Inverse Agonists (Inhibition Mode); further: nearly all actives have a fitted effect of over 55% in size
Settings: HEK293 GLP-1R CRE-luciferase, luminescence, 24 h, GLP-1R form is constitutively active; series mostly up to 38.3 µM
Outline: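 Inverse agonism was detected as reduced cAMP-driven luciferase luminescence after 24 h compound treatment. The cells were HEK293 clones expressing constitutively active human GLP-1R with the reporter. Reporter-only and GPR119 cell lines served as counterscreen controls.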
Potency means the concentration at half of the fitted maximal effect; tags describe the fitted curve by direction and shape.

Sequence of UniProt P43220 (P43220 whole entry, looked up): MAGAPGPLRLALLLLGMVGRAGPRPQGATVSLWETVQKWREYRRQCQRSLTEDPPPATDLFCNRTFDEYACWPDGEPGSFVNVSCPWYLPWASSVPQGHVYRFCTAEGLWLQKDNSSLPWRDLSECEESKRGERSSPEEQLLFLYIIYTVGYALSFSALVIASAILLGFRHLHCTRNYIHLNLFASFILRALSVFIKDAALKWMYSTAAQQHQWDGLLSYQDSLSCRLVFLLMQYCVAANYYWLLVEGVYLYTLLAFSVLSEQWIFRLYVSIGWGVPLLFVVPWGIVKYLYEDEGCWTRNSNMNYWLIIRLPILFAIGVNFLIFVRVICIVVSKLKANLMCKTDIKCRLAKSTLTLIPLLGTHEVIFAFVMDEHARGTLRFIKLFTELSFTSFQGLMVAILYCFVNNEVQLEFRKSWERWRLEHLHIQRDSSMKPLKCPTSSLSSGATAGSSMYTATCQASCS

Potency, inactive:
COc1ccc(N(CC(=O)NC2CCCCC2)C(=O)c2ccc(C)s2)cc1OC
COc1ccc(Cl)cc1NC(=O)CSc1nnc(C2CC2)n1N
CC(=O)CC1c2ccccc2C=C(c2ccsc2)N1c1ccc(-c2cccs2)cc1 (configuration not stated)
CCOC(=O)c1cc2c(ccn2-c2ccc(F)cc2)n1CC(=O)N1CCN(C(=O)c2ccco2)CC1
Cc1cc(C(=O)COC(=O)c2cc(O)c3ccccc3c2O)c(C)n1CC1CCCO1 (configuration not stated)
Cc1ccc2c(=O)cc(C(=O)Nc3nc4ccc(Cl)cc4s3)oc2c1C
CCOCCc1nn2c(=O)cc(COC(=O)CNC(=O)c3cccc(C)c3)nc2s1
CCN(CC)CCCNC(=O)c1cn(C)c2ccc(S(=O)(=O)N(C)C3CCCCC3)cc2c1=O
N#C/C(=C/c1ccc(-c2ccc(S(N)(=O)=O)cc2)o1)c1nc2ccccc2s1
CCCNC(=O)CNC(=O)c1ccc(C#N)cc1
CN1CCN(NC(=O)CN2C(=O)/C(=C/c3c(Cl)cccc3Cl)SC2=S)CC1
CN(Cc1ccccc1)C(=O)c1csc(COCCO)n1

Potency, active:
S=C(NCc1ccccc1)Nc1cccc2ccccc12 10 µM
CC(=O)N1CCCN(Cc2cn(-c3ccc(C)cc3)nc2-c2cccc(C)c2)CC1 10 µM
COc1ccc(/C=C/C(=O)Nc2ccc3nc4c(c(Nc5ccccc5OC)c3c2)CCCC4)cc1 8.91 µM

Potency, inconclusive:
Cc1ccc(NC(=O)CCn2c(=O)c3cccn3c3ccccc32)cc1C 12.6 µM [inhibitor, single point]
COc1cc(C)ccc1OCCOCCOc1ccc([N+](=O)[O-])cc1 31.6 µM [inhibitor, single point]
CC1(C)CC(=O)C=C(c2ccc(-c3ccc4[nH]ccc4c3)cc2)C1=O 12.6 µM [inhibitor, single point]
COc1ccc2c(c1)C(SCC(=O)NCc1ccccc1)CC(C)(C)O2 (configuration not stated) 11.2 µM [inhibitor, partial curve, poor fit]
CC(C)c1ccc(S(=O)(=O)Nc2ccc3c(c2)OCO3)cc1 28.2 µM [inhibitor, single point]
CCc1noc(C)c1C(=O)Nc1nc2c(C)cc(C)cc2s1 28.2 µM [inhibitor, single point]
CC(C)(C)OC(=O)N1CCC(c2c(C(=O)NCCN3CCc4ccccc4C3)cnn2-c2ccc(F)cc2F)CC1 12.6 µM [inhibitor, single point]
CCC(=O)N1N=C(c2ccccc2)CC1c1ccccc1 (configuration not stated) 31.6 µM [inhibitor, single point]
Cc1c(C(=O)NCC(c2ccc(Cl)cc2)N2CCOCC2)oc2ccccc12 (configuration not stated) 10 µM [inhibitor, single point]
CCOc1ccc(N2CC(c3nc4ccccc4n3CCCOc3ccccc3)CC2=O)cc1 (configuration not stated) 25.1 µM [inhibitor, single point]
COc1ccc(C2CC(c3cccs3)=NN2c2ccc(C=O)cc2)cc1 (configuration not stated) 7.94 µM [inhibitor, partial curve, poor fit]
C/C(=N\NS(=O)(=O)c1ccc([N+](=O)[O-])cc1)c1ccc(NC(=O)c2ccco2)cc1 8.91 µM [inhibitor, partial curve]
Cc1cc2nc(-c3ccc(SCC(=O)N4CCN(C(=O)c5ccco5)CC4)nc3)[nH]c2cc1C 28.2 µM [inhibitor, single point]
CCCCN(C)CCNC(=O)c1c2c(nc3ccccc13)C(=O)N(C1CCCCC1)C2 31.6 µM [inhibitor, single point]
O=C(OCc1ccccc1)N1CCCC2CC1c1ccccc12 (configuration not stated) 10 µM [inhibitor, partial curve, poor fit]
CC1(C)CC(=O)C2=C(C1)Nc1ccccc1NC2c1ccc([N+](=O)[O-])cc1 (configuration not stated) 11.2 µM [inhibitor, partial curve, poor fit]
COc1ccc(NC(=O)/C(Cl)=C(/Cl)S(=O)(=O)Cc2ccccc2)cn1 5.62 µM [inhibitor, full curve, poor fit]
CC1(C)C2CCC(C2)C1C/C=N/NC(N)=S (configuration not stated) 5.62 µM [inhibitor, partial curve, poor fit]
CC(C)C(c1nnnn1Cc1ccc(F)cc1)N1CCN(Cc2ccc3c(c2)OCO3)CC1 (configuration not stated) 3.55 µM [inhibitor, partial curve, poor fit]
N#CC1=C(N)C2=CCCC[C@H]2[C@H](c2cccc(F)c2)C1(C#N)C#N 3.16 µM [inhibitor, full curve]
CCN(Cc1cccs1)C(=O)CN1C(=O)NC(c2ccccc2)(c2ccccc2)C1=O 28.2 µM [inhibitor, single point]
O=C(NCCc1ccccc1)C(=O)NCC1OCCN1S(=O)(=O)c1ccc2c(c1)OCCO2 (configuration not stated) 0.501 µM [inhibitor, full curve, poor fit]
CCCC(C(=O)NC1CCCC1)N(Cc1ccc(F)cc1)C(=O)c1snc(C(N)=O)c1N (configuration not stated) 28.2 µM [inhibitor, single point]
Cc1ccc(OCC(=O)NCCNC(=O)COc2ccc(C)cc2)cc1 0.447 µM [inhibitor, partial curve, poor fit]
CCOc1ccccc1-n1c(=S)sc2c(=O)n(-c3ccc(C)cc3)c(=S)[nH]c21 11.2 µM [inhibitor, partial curve, poor fit]
O=C(COc1ccc(Cl)cc1)Nc1nnc(S(=O)(=O)N2CCc3ccccc32)s1 11.2 µM [inhibitor, single point]
CCN(C(=O)CSc1nc2ncccc2[nH]1)c1ccc(C(C)C)cc1 12.6 µM [inhibitor, single point]
CC(C)CCNC(=O)c1onc(CSc2ccccn2)c1C(=O)NCCC(C)C 28.2 µM [inhibitor, single point]
CN1CCCN(S(=O)(=O)c2ccc(Cl)c(Cl)c2)CC1 8.91 µM [inhibitor, partial curve, poor fit]
CN1CCN(C(=O)c2ccccc2N(Cc2ccccc2)S(=O)(=O)c2ccccc2)CC1 11.2 µM [inhibitor, partial curve, poor fit]
Cn1cccc1Cc1nnc(SCC(=O)N2CCCCCC2)n1-c1ccc(F)cc1 12.6 µM [inhibitor, single point]
O=C(CSc1nnc(CNc2ccc(F)cc2)n1Cc1ccccc1)NCc1ccccc1 7.94 µM [inhibitor, partial curve, poor fit]
COC(=O)C1CN(C(=O)C(C)Oc2ccc(C(C)C)cc2)c2ccccc2O1 (configuration not stated) 10 µM [inhibitor, partial curve]
Cc1ccc(C)c(N2CCN(S(=O)(=O)c3c(C)[nH]c(C)c3C(=O)N3CCCC3)CC2)c1 31.6 µM [inhibitor, partial curve, poor fit]
CC(C)(C)C(=O)Nc1cccc(C(=O)c2cccc(NC(=O)C(C)(C)C)c2)c1 11.2 µM [inhibitor, partial curve, poor fit]
Cc1[nH]nc(C(F)(F)F)c1N=NN1CCOCC1 14.1 µM [inhibitor, single point]
Cc1cc(C)cc(N(C(=O)c2snc(C(N)=O)c2N)C(C(=O)NCC2CCCO2)c2ccc(C)o2)c1 (configuration not stated) 5.62 µM [inhibitor, full curve, poor fit]
COC(=O)[C@]12CCCCC=C1N(Cc1cccc3ccccc13)C(=O)[C@H](CC(=O)NCc1ccc(OC)c(OC)c1)C2 11.2 µM [inhibitor, partial curve, poor fit]
CSc1ccc(/C=C/C(=O)N2CCCN(C)CC2)cc1 10 µM [inhibitor, single point]
OC(c1ccccc1)(c1ccccc1)C1CCN(CCCOc2ccc(F)cc2)CC1 8.91 µM [inhibitor, partial curve, poor fit]
CCN(C(=O)c1cc2c(=O)n3cccc(C)c3nc2n1CCCOC)C1CCCCC1 10 µM [inhibitor, single point]
CCOc1ccc(S(=O)(=O)N2CCN(Cc3ccc4c(c3)OCO4)CC2)cc1C 20 µM [inhibitor, single point]
CCCCc1ccc(NC(=S)Nc2ccc(Nc3ccc(OC)cc3)cc2)cc1 11.2 µM [inhibitor, single point]
CCn1c(NCCCO)nc2c(c1=O)C(C)(CC)Cc1ccccc1-2 (configuration not stated) 7.94 µM [inhibitor, partial curve, poor fit]
CC(C)n1c(N2CCN(CC(=O)NCc3cccs3)CC2)nc2ccccc21 2 µM [inhibitor, full curve]
CC1=NNC(=O)/C1=C\c1cn(-c2ccccc2)nc1-c1ccc(F)cc1 10 µM [inhibitor, partial curve, poor fit]
Cc1ccc(CNc2cnn(C34CC5CC(CC(C5)C3)C4)c(=O)c2Cl)cc1 1.41 µM [inhibitor, full curve, poor fit]
